Assay results as given in PubChem BioAssay AID1347165 (National Center for Advancing Translational Sciences (NCATS), 2019).
In all, about 220,000 compounds went through this assay and about 5,700 (2.6%) were called active. This list was built around the results that the source calls inconclusive (neither active nor inactive); the mix of calls is not that of the screen. The call rests on the fitted dose curve; in most records, active means well fitted inhibition curve with a large enough effect; inconclusive means small, poorly fitted or top-dose-only effect; inactive means no such curve, though single readings can be large or run the other way. Where the call is inconclusive, the potency comes from a doubtful curve fit.
Further: nearly all actives have a fitted effect of over 70% in size.
Potency means the concentration at half of the fitted maximal effect; tags describe the fitted curve by direction and shape.

Each compound was assayed against Lysine-specific demethylase 5B (Homo sapiens) (UniProt Q9UGL1) (assay: Primary screen for KDM5B Histone Demethylases FDH-coupled qHTS). Conditions: FDH-coupled NADH fluorescence (FDH is formaldehyde dehydrogenase); series mostly up to 57.7 µM.
Chain of UniProt Q9UGL1 (Q9UGL1 whole entry, looked up): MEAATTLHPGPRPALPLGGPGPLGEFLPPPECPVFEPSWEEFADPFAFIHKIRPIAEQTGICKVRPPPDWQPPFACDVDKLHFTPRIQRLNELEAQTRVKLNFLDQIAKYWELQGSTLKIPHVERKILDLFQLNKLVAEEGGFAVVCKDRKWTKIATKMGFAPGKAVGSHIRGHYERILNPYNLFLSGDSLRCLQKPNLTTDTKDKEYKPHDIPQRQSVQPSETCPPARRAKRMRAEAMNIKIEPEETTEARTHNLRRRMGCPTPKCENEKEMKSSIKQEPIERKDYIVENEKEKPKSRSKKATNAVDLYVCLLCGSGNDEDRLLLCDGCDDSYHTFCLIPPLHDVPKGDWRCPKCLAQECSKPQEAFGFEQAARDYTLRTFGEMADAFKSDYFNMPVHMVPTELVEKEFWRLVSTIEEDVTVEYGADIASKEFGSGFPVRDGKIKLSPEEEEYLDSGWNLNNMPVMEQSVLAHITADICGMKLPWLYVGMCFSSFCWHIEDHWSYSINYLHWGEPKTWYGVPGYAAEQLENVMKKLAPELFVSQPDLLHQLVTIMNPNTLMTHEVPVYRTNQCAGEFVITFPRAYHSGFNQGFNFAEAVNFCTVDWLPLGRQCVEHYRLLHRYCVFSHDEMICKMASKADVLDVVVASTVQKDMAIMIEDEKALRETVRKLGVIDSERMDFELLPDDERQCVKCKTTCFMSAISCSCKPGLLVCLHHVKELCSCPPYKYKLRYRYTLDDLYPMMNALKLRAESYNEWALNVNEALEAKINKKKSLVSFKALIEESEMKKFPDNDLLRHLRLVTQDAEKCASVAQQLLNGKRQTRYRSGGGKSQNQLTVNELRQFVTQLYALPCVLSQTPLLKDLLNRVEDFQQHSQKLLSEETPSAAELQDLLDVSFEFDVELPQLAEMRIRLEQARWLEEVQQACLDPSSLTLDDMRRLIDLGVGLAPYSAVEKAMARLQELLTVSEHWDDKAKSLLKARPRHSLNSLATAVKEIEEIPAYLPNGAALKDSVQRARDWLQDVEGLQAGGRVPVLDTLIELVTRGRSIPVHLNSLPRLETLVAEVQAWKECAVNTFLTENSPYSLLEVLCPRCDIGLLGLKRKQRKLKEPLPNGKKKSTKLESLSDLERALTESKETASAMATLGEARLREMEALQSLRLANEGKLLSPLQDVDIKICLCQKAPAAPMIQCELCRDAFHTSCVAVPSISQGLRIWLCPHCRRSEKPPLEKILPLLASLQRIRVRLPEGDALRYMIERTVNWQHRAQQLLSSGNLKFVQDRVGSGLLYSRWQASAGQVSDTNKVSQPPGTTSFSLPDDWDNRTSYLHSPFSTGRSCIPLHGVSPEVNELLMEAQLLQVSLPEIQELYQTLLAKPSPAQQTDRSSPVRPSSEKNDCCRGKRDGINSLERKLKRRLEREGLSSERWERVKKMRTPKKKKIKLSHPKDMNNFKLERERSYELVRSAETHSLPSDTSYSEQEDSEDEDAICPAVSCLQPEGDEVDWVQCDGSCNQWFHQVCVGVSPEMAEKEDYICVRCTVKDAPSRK
Procedure, shortened: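 Coupled FDH/NAD⁺ fluorescence readout. KDM5BΔAP 200 nM final; compound titration, 10 min RT preincubation; substrate mix 12.5 µM H3K4me3, 25 µM 2-OG, 50 µM Fe(II), 100 µM ascorbate, 0.25 mM NAD⁺, 0.25 U/mL FDH; ΔRFU over 30 min.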
With Cc1cccc(Nc2ncnc3sccc23)c1C the Potency was “inactive”. For COc1cc(NC(=O)C2CCN(S(=O)(=O)c3c(C)noc3/C=C/c3cccs3)CC2)cc(OC)c1, the Potency was inconclusive: 28.2 µM [inhibitor, partial curve, poor fit]. COc1ccc(-c2nccn3cc(C(=O)NCc4ccc(OC)c(OC)c4)nc23)cc1 was tested, and the Potency was inconclusive: 15.8 µM [inhibitor, partial curve, poor fit]. O=C(c1ccc(=O)[nH]c1)N(CC1CCN(Cc2ccccc2F)CC1)CC1CCCO1 (configuration not stated) was tested, and the Potency was inconclusive: 15.8 µM [inhibitor, partial curve, poor fit]. CCOc1cc(/C=C/c2nc3ccc(OC)cc3s2)ccc1O was tested, and the Potency was inconclusive: 22.4 µM [inhibitor, partial curve, poor fit]. In the case of COc1ccc(NC(=O)CC2C(=O)N(c3ccccc3)C(=O)N2CCC2=CCCCC2)cc1 (configuration not stated), the Potency is reported as inconclusive: 7.08 µM [inhibitor, partial curve, poor fit]. In the case of FC(F)(F)c1ccccc1/C=N/NC(=S)NCc1ccccc1, the Potency is reported as “inactive”. For CNS(=O)(=O)c1ccc(C(=O)N2CCCC2c2ccc3c(c2)OCCCO3)cc1 (configuration not stated), the Potency was “inactive”. For O=c1oc2c(CN3CCN(CCO)CC3)c(O)ccc2cc1-c1ccccn1, the Potency was inconclusive: 1.78 µM [inhibitor, partial curve, poor fit]. In the case of Cc1cccc(CNC(=O)c2c(C)noc2-c2ccccc2Cl)c1, the Potency is reported as “inactive”. In the case of Cc1nnc(-c2cc(Nc3cccc(N(C)C)c3)ccn2)n1C1CCCCC1, the Potency is reported as inconclusive: 31.6 µM [inhibitor, single point]. COc1ccc(/C=N\NC(=O)c2cccc(F)c2)cc1COc1ccccc1 was tested, and the Potency was inconclusive: 39.8 µM [inhibitor, single point]. For C=CCOC(=O)C1=C(C)N=C2SC=C(CC(=O)N3CCCC3)N2C1c1cc(OC)cc(OC)c1 (configuration not stated), the Potency was “inactive”. In the case of CN(C)S(=O)(=O)c1cc(NC(=O)CNCc2ccc(F)cc2)ccc1Cl, the Potency is reported as inconclusive: 14.1 µM [inhibitor, partial curve, poor fit]. For Cc1nc(C)c(C(=O)N2CCC(Oc3ccc(-c4noc(C5CC5)n4)cc3)C2)s1 (configuration not stated), the Potency was “inactive”. CCOC(=O)c1ccc(CSc2nnc3cc(C)c4ccccc4n23)cc1 was tested, and the Potency was inconclusive: 2.24 µM [inhibitor, full curve, poor fit]. With COc1ccccc1NC(=O)CN(c1ccc(C(C)C)cc1)S(=O)(=O)c1c(C)noc1C the Potency was inconclusive: 17.8 µM [inhibitor, partial curve, poor fit]. In the case of O=C(NC1CCCCC1)c1ccc2c(c1)sc1nc(-c3ccccc3)cn12, the Potency is reported as inconclusive: 17.8 µM [inhibitor, partial curve, poor fit]. With CC1CCCC(NC(=O)/C(C#N)=C\c2ccccc2)C1C (configuration not stated) the Potency was inconclusive: 20 µM [inhibitor, single point]. With COc1cccc(-c2ocnc2C(=O)Nc2ccc(N3CCOCC3)cc2N2CCOCC2)c1 the Potency was inconclusive: 39.8 µM [inhibitor, partial curve, poor fit]. CCCc1ccc(S(=O)(=O)N2CCCC(Cn3c(C)nc4cccnc43)C2)cc1 (configuration not stated) was tested, and the Potency was “inactive”. CCc1ccc(Nc2cc(C)nc3nc(Cc4ccc(Cl)cc4)nn23)cc1 was tested, and the Potency was inconclusive: 1.58 µM [inhibitor, partial curve, poor fit]. In the case of COc1ccc2oc(C(=O)NC3CCC(C)CC3)c(C)c2c1 (configuration not stated), the Potency is reported as inconclusive: 22.4 µM [inhibitor, single point]. COCC(=O)NC[C@H]1OC[C@@H](N(Cc2ccncc2)Cc2ccncc2)[C@@H]1O was tested, and the Potency was inconclusive: 28.2 µM [inhibitor, partial curve]. With Cc1cccc(NC(=O)CSc2nc3ccc(NC(=O)c4cccs4)cc3s2)c1 the Potency was inconclusive: 44.7 µM [inhibitor, single point]. In the case of CSCCc1nc(SCC(=O)Nc2ccc(C)cc2)[nH]c1C, the Potency is reported as “inactive”. In the case of COc1ccc(C(=O)/C=C/c2ccccc2OC(F)F)c(OC)c1, the Potency is reported as “inactive”. COCC1CN(C2CCC2)CC12CCN(Cc1scnc1C)CC2 (configuration not stated) was tested, and the Potency was inconclusive: 17.8 µM [inhibitor, partial curve]. For COc1ccc(C2c3c(n(C)c4ccccc34)C(=O)N2CC(=O)Nc2ccc(Cl)cc2)cc1 (configuration not stated), the Potency was inconclusive: 15.8 µM [inhibitor, partial curve, poor fit]. With Oc1cccc(CN2CCCC23CCN(c2ccc(C(F)(F)F)cn2)CC3)c1 the Potency was inconclusive: 28.2 µM [inhibitor, partial curve, poor fit]. For COc1cccc(CN[C@H]2[C@H](O)[C@H](O)C[C@@H]2c2ccc(C(F)(F)F)nc2)c1, the Potency was “inactive”. O=C(C1CCCC1)N1Cc2ccccc2CC2(CCN(Cc3ccccn3)C2)C1 (configuration not stated) was tested, and the Potency was “inactive”. For Cn1c(=O)n([C@H]2CCCN(C(=O)CN3CCCCCC3)C2)c2ncccc21, the Potency was inconclusive: 17.8 µM [inhibitor, single point]. In the case of O=C(Nc1ccc(Cl)cc1)Nc1ccc2n(c1=O)C[C@H]1C[C@@H]2CN(C(=O)c2ccc3ccccc3c2)C1, the Potency is reported as inconclusive: 28.2 µM [inhibitor, single point]. COc1ccc(-c2cc3ccc(OCC=C(C)C)cc3oc2=O)c(OC)c1 was tested, and the Potency was inconclusive: 1.78 µM [inhibitor, partial curve, poor fit]. Clc1cc2[nH]c3c(c2cc1Cl)CCCC3 was tested, and the Potency was inconclusive: 28.2 µM [inhibitor, partial curve, poor fit]. With COc1ccc(CC2C(=O)N(C)c3ccc(Br)cc32)cc1 (configuration not stated) the Potency was “inactive”. In the case of O=C(N[C@H]1CCN2C(=O)c3ccccc3NC(=O)[C@@H]2C1)C1CCCC1, the Potency is reported as inconclusive: 28.2 µM [inhibitor, partial curve]. In the case of NC(=O)C1CCN(C(=O)CCC(=O)N2CCN(C(=O)c3cc4ccccc4[nH]3)CC2)CC1, the Potency is reported as “inactive”. In the case of Cc1cc(C)n2nc(SC(C)C(=O)Nc3c(Cl)cc(Cl)cc3Cl)nc2n1 (configuration not stated), the Potency is reported as “inactive”. For COc1ccc(C(=O)NCCn2c(C)cnc2-c2ccccc2)cn1, the Potency was “inactive”. For COc1ccc(CC(=O)N2CC[C@@H](CC(=O)O)[C@@H](CCN(CCN3CCOCC3)c3ccccc3)C2)cc1, the Potency was inconclusive: 17.8 µM [inhibitor, partial curve, poor fit]. With CC(C)(C)c1nc(C(=O)N2CCOCC2)n2ccncc12 the Potency was active: 89.1 µM. For CCN(CC)CCCNC(=O)NC12CC3CC(CC(C3)C1)C2, the Potency was “inactive”. For COc1ccc(CCNC(=O)c2cc(Sc3cccc(Cl)c3)nc3ccccc23)cc1OC, the Potency was inconclusive: 35.5 µM [inhibitor, single point]. In the case of COc1ccc2c(C)c(CC(=O)Nc3nnc(C)s3)c(=O)oc2c1OC, the Potency is reported as inconclusive: 22.4 µM [inhibitor, partial curve, poor fit]. For Cn1nccc1C(=O)NCC1Cn2cccc2CN1Cc1ccccc1 (configuration not stated), the Potency was active: 22.4 µM. With COc1ccc(-c2nc(Nc3ccccc3C)c3ccccc3n2)cc1 the Potency was inconclusive: 35.5 µM [inhibitor, partial curve, poor fit]. CCc1ccc(-c2cc(C(F)(F)F)n3nc(C(=O)NCc4cnn(C)c4C)cc3n2)s1 was tested, and the Potency was “inactive”. For CCOC(=O)c1ccc(-c2ccc(/C=N/NC(=O)Cc3nnc(N)s3)o2)cc1, the Potency was inconclusive: 12.6 µM [inhibitor, partial curve, poor fit]. In the case of COc1ccccc1N1CCN(S(=O)(=O)c2ccc(F)c(C(=O)Nc3ccc(C)c(F)c3)c2)CC1, the Potency is reported as inconclusive: 35.5 µM [inhibitor, single point]. With COc1ccc(NC(=O)c2ccco2)cc1NC(=O)COc1cc(C)cc(C)c1 the Potency was inconclusive: 10 µM [inhibitor, partial curve, poor fit]. With COC(=O)c1ccc2nc(CO[C@H]3CN(Cc4ccc(Cl)cc4)C[C@H]3F)[nH]c2c1 the Potency was “inactive”. CN(Cc1ccc2nsnc2c1)Cc1nc(Cc2cccc(C(F)(F)F)c2)no1 was tested, and the Potency was inconclusive: 35.5 µM [inhibitor, single point]. With CC(C)c1nc2c(c(-c3ccc(O)cc3)n1)CN([S+](=O)([O-])c1ccccc1)CC2 the Potency was “inactive”. With CCNC(=O)NCC12CCCC=C1NC(=O)CC2 (configuration not stated) the Potency was inconclusive: 7.94 µM [inhibitor, partial curve]. For CC(=O)Nc1ccc(-c2nc3cc(C(C)C)ccc3o2)cc1, the Potency was inconclusive: 20 µM [inhibitor, partial curve, poor fit]. COc1cccc(C2Oc3ccccc3C3CC(c4cccs4)=NN32)c1 (configuration not stated) was tested, and the Potency was inconclusive: 28.2 µM [inhibitor, single point]. With CCn1c(NC(=O)c2oc3ccccc3c2CSC)nc2ccccc21 the Potency was inconclusive: 39.8 µM [inhibitor, single point]. Nc1c(C(=O)c2ccc(F)cc2)sc2nc3c(cc12)CN(Cc1ccccc1)CC3 was tested, and the Potency was “inactive”. With O=C(c1ncccn1)N1CCNc2cnc(Nc3ccc(-n4ccnc4)cc3)nc2C1 the Potency was “inactive”. For CC(=O)N1CCC(N2CCOC[C@H]2c2ncc(-c3ccc(C(F)(F)F)cc3)[nH]2)CC1, the Potency was “inactive”. O=C(NCCc1ccc(Cl)cc1)c1nc(-c2ccc(F)cc2)c2ccccn12 was tested, and the Potency was active: 25.1 µM. For Cc1ccc(-c2nc(CSc3nnnn3CC(C)C)co2)c(C)c1, the Potency was “inactive”. With COC(=O)c1c(NC(C)=O)c2cc(NC3CCCC(C)(C)C3)cnc2n1CC1CCCO1 (configuration not stated) the Potency was inconclusive: 31.6 µM [inhibitor, partial curve, poor fit]. Cc1ccc2c(=O)cc(C(=O)Nc3ccc(S(=O)(=O)N(C)c4ccccc4)cc3)oc2c1 was tested, and the Potency was “inactive”. With COc1ccc(C(=O)N[C@H]2C[C@H]3C(=O)Nc4ccc(-c5cccs5)cc4C(=O)N3C2)cc1 the Potency was active: 35.5 µM.
